Over roughly 33,000 sequences, “E-score (-0.5 to 0.5)” has its median near -0.01; the highest 2% begin near 0.26. Some of the results follow.
Molecular target: Ste12 (UniProt P13574)
Assay: PBM E-score (8-mer binding enrichment) (E-score (-0.5 to 0.5)); higher = stronger / more preferred TF binding; most listed sequences are background and not binding sites
Details: protein concentration: 200 nM; construct: GST-DNA-binding domain
Summary of the method: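 Each ungapped eight-base word and its reverse complement, pooled, received an E-score from the Universal PBM Analysis Suite. Underlying scans, normalised with masliner, recorded fluorescent anti-GST bound to GST-tagged yeast transcription factors. These were applied at about 100-200 nM to universal all-10-mer Agilent arrays double-stranded by primer extension.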

Sequence	PBM E-score
GCGAACGA	-0.0265
CTTCTGCA	-0.0176
AATCCCGG	0.0977
GGCAGCAA	0.0858
CTTGCGGC	-0.217
CTCCAGGC	-0.185
GATCCGAC	-0.176
ACTCGGCT	-0.0881
CGGCAGCC	0.224
AATCTTAC	0.117
AGTCCATA	-0.0853
CGTATTCC	0.073
GCAGACCC	-0.168
CATGGTGG	-0.0711
AACTCGGA	0.0603
AGACGTCA	-0.137
CTTTCCAA	0.186
AAGCACAT	-0.0896
AAGATGTC	-0.0718
AATCGTGT	0.0806
AAGTTTGA	0.221
CACGAGCC	-0.0409
ACGTCCGA	-0.0639
AGTCTTAC	-0.132
AGCTTGCA	-0.163

Sequence	PBM E-score
AATTTAAC	0.208
CACACTAC	-0.066
GTCCCGTA	-0.156
ATCCACGG	-0.125
CCGTATCC	-0.0568
CATGTGCC	-0.0606
AATTTGCA	-0.0162
GCGTAACA	-0.0008
GTCAAACA	0.0675
CCCATGGC	-0.138
CAGGGGCA	-0.11
CTCCTTCA	-0.185
AGGGATAT	-0.0901
AGTTTGTG	-0.0309
CTCATGAA	0.1
ATAAACAA	0.13
ATTATTCG	0.21
ACCCCGTG	0.0718
CGTAATAC	0.0163
CCGCTGGA	-0.0851
CGAGCGAG	0.145
GTAAGGAA	-0.17
TTAAAAAA	0.294
GTAGCATA	0.0916
CGCATACC	0.125

Sequence	PBM E-score
AAGGCATG	-0.186
AGGCGTAA	-0.193
AAACCTGT	0.00578
ACTAGCAT	-0.0896
ACATATTC	0.09
CAGACGGA	0.0125
CTCAATTA	0.189
CGACACGA	0.159
AACGAAGC	0.0326
CCTTCTCC	-0.0919
CCAACGTC	0.00728
ATCCTCAT	-0.106
AGGCAGTC	-0.245
GGTCCGCA	-0.111
ACCTGCAT	-0.146
CTAATAAG	-0.0045
AGGTTGAC	0.134
AAGGATTA	0.0233
GTACATTA	0.0532
CTAGTTAC	0.0278
AACTTGCG	-0.0915
ATCAGACA	0.111
AACGGGCT	-0.0831
GGTGATTA	0.0267
ACCCTCCA	-0.0426

Sequence	PBM E-score
AATCGGCC	-0.0936
CCGATCCA	-0.0596
AGCAACCG	-0.187
CATCAGGG	-0.0388
CACGCTGG	-0.226
CAAGTACA	-0.0437
CTGACTTC	0.0769
GGCCCCAC	-0.181
AAAGTTTC	0.329
GAGTCGCA	-0.168
CAGGTGAG	-0.199
GGCAATGA	-0.192
CCCGAGCA	-0.0155
CGGACAAC	0.0563
ATAGTGAA	0.0898
GAGTACAA	-0.0915
GGAATCAA	0.0809
ACACGCCC	-0.0615
GACATGGC	-0.244
CATACCCG	0.148
GACCCGGA	-0.116
CCAAGTGC	-0.206
GTAATGCA	-0.225
TCCCAAGA	-0.0561
GACCGGCA	-0.0447

Sequence	PBM E-score
GTGATGAA	0.0296
ACCTACAC	-0.023
ACACGGGT	-0.0408
ATTCAGTA	0.0571
ATGTCTTA	0.134
CCAGCTAA	-0.153
CCAGAGTC	-0.161
GTAACGCA	0.107
AAAAGCTG	-0.0886
ACAAACAT	0.0989
CGAACGGA	0.0575
CACATGAC	-0.0466
AATAATGT	0.14
GTCTGGGA	-0.135
AAATAGAA	-0.0326
CCCTTGGC	-0.274
AAATATTC	0.14
GGGTAACC	-0.0955
CGAGTAAA	0.0807
AGGTGTAG	-0.149
CATGCAGA	-0.145
AATCGTAT	0.0969
CTAGGCTA	-0.00684
AGCGGCAC	-0.16
CGCGTTTC	0.234

Sequence	PBM E-score
AGCGGTGC	-0.014
GATATTAC	0.185
AGAACACG	0.0904
AACGCGTA	0.0194
GGCGTTGA	-0.0188
CAACACAG	0.116
GTTACTGA	-0.0623
GGCCGAGA	-0.0889
TGCTGGAA	-0.0637
ACCTTGCC	-0.0234
ACGCCAAC	-0.0312
GAGTCGCC	-0.332
ACTATTCC	0.172
ATGTGCGG	-0.0669
GGTACTGA	-0.134
CGGTTGAG	-0.0435
AAGTCGGT	-0.0505
GCGCTAAA	0.0404
GTTCGTTA	0.0617
CGATTTAG	0.072
GGCACTAC	-0.233
AAACTGCA	0.223
CGCTCTAG	-0.0816
CAGGACGA	-0.108
AGGTTCCC	-0.258

Sequence	PBM E-score
AATTGACC	0.0858
CGCACTAG	-0.0304
CTATCCCC	-0.00854
CAGTATTA	0.196
ACGAGAAT	0.0807
AACATCCC	0.0232
GGGACGCA	-0.162
AACTTTTC	0.185
AGGGCCGG	-0.132
AACTGGGC	-0.0934
AAGTAGGG	-0.00371
CAACCTAC	0.066
ACAATTGT	0.0466
ACCTATGA	-0.21
CCCTATCA	-0.06
CGAGCGAC	-0.173
AAGCATCT	-0.0846
AGTAACCA	0.035
AACCACTC	0.0388
AATATCCG	0.00579
GTCAGTAA	-0.0544
AACTAACA	0.0419
CATCCCTA	-0.18
CCTACTGC	-0.156
GTCTACAC	-0.0612

Sequence	PBM E-score
ACCGGAAG	0.0939
AGAGCTAT	-0.234
ACAGGAAA	0.164
ACCTCGAA	0.121
ACATGATA	0.12
CCGGGGAC	-0.25
GTCTATCA	0.0622
ATTAGCCA	0.0809
ACGTAGCC	-0.363
ATTTAAGA	0.0744
ACATTACC	-0.119
GTACCCCA	-0.0685
CTACGTCC	-0.134
ACAGGGCT	-0.283
GGGCTTAC	0.0112
AAGGTGTG	0.0808
CCCCTCAA	0.0476
AATTCACG	0.0745
CATGGGCA	-0.114
GTGCAGCA	-0.228
GCCACCTA	-0.0287
AATCCAAA	0.14
CCCGTGGC	-0.139
AGGTTACA	0.0287
GCAAGTGA	0.0518

Sequence	PBM E-score
TAGGACAA	-0.189
ACAGAATA	0.0915
GAATACAC	-0.0531
GCTGTTCA	-0.183
ATGCCAAG	-0.0789
CCAACTCG	0.0213
ACGGGTTA	-0.29
CCCGAGGC	-0.0534
CTATGGCC	-0.193
CCTGCCGA	-0.0578
TCCATAGA	0.0463
GTACACTA	-0.182
TCACAAAA	0.271
CTTGTGTC	0.0731
CCCGGGAC	-0.0101
ACACACCC	-0.0126
TGGATAAA	0.135
ACGTATCC	-0.19
CGTTGTCC	0.13
CCCTGGAA	-0.294
AGCACGGA	-0.223
CATACCAC	-0.0801
CCGCGTGC	-0.187
AGGTTCAT	-0.0202
CGTAACTC	-0.151

Sequence	PBM E-score
AGAAGACC	-0.135
GATTAAAA	0.234
CACATGGC	-0.0321
AAGTTACA	0.204
ACAAATGG	0.181
CTGTACTA	0.0185
CTACACGC	-0.191
AGCTATCC	-0.177
TAGTGTGA	0.0481
AGTCGCGA	0.143
CGACTCAG	0.0362
AGGATCAA	0.101
ATAATCTG	-0.0844
AAATCCCT	-0.0174
ACCCCACC	0.373
CAAGATCA	-0.178
CTTTCTAA	0.0574
ATACCCCA	0.139
ACTTACTA	0.065
GGCCATAA	-0.0428
CCGGATAC	-0.099
AATACATC	0.156
AGCGGCTC	-0.0004
AATCTGGA	0.116
AATACGAC	-0.0208

Sequence	PBM E-score
CGAGAGAG	-0.0495
GGCGGCCC	-0.204
AACATTCA	0.0972
GTCGTTGA	-0.283
CCATTAGG	-0.313
CGAACGAG	-0.116
CATTATTA	0.228
CACCGCGG	0.0619
ACCTCACA	0.0386
ACCTCGAG	0.0675
CCTTAAAC	0.127
CGGACCGA	0.121
CAAAGGCG	-0.14
ATTGTGAA	0.184
TGGGGACA	-0.0566
GAGTCTCA	0.0444
AGACATTA	-0.00915
CAGCCCCA	0.0237
CCTATGAA	-0.0321
GGATACAA	0.00408
GCAAGGTA	-0.00401
GCAAACAC	-0.0961
CCCTCGGC	-0.0768
GAGTCTCC	-0.172
CAAATCTA	0.084

Sequence	PBM E-score
CTGTTCTC	-0.0358
CGCGAACC	-0.0421
CGACAAAG	0.0569
AAGTTTTC	0.0212
ATTCCTGC	-0.0553
GAATGAAC	0.016
AGGTAACA	0.204
GCAATCCC	0.0206
AAGCAGCG	0.0443
ACAGTCGA	-0.135
AAAAGAAA	0.249
GCACTACC	-0.0568
CAGAACGC	-0.125
GAACCCGA	-0.0553
AGCCCACG	-0.16
ACAACAGC	0.0715
CTGCTTAC	-0.0876
AAAGGGCA	-0.124
ATAAGACA	0.124
CAACTTCA	0.0197
TGGGAACA	0.0758
AGTTCTGA	-0.00185
CGCGTATC	0.134
AGGTAATC	-0.0724
ATTCCGGG	-0.0224

Sequence	PBM E-score
AGACGAAG	-0.147
CGACGATA	-0.104
AAATGCAA	-0.0878
AACGTGGA	0.0727
CATGAAGA	-0.0377
AAGGGAGT	-0.232
GTCCTATA	-0.103
GTGTCTAA	-0.0504
ACGACTTG	-0.0158
ACGCAAAG	-0.0571
AAAGTCCT	-0.0695
AGCTCAAG	-0.142
ACACTATG	-0.121
ACTTGTAT	0.143
GGGCAACC	-0.248
CCACCGAG	-0.0702
GCGCGAGC	-0.033
CTATAGGC	-0.127
CTTGAAAG	-0.0999
ATAGTCCA	-0.128
AGCATCAG	-0.0547
CATATTTC	0.13
CCGATTGC	0.114
CAACAATG	0.0944
CGTTCCCA	-0.253

Sequence	PBM E-score
CCCCATAG	-0.145
GTGGACAC	-0.0883
CCGTCGAA	0.0168
ACGAGGTA	-5e-05
AAATATTA	0.352
ATCAATCC	0.0719
CTAAGTCC	-0.178
GCACGCGA	-0.0629
GGGGTGAC	0.0481
CTGAGTTC	-0.0109
CTCACTCC	0.0526
TACCCAAA	0.161
CCGCAAAC	0.0207
AATTAAGC	0.202
CCTGAGTA	0.0732
CTTGGTGA	0.0651
GAATAAGA	0.0864
CTGGCCGC	0.0105
CTCAGTAA	-0.162

— the supplement of paper PMC3334620
